In paper PMC12820563 one finds binding signal (RPM ratio (pull-down/input)) data, which are given here for 31 sequences.

This is one part of the list. The list includes weakly bound sequences.

The target in the experiment is T1, MBP-FoxP3dN (UniProt Q99JB6).
T1 sequence: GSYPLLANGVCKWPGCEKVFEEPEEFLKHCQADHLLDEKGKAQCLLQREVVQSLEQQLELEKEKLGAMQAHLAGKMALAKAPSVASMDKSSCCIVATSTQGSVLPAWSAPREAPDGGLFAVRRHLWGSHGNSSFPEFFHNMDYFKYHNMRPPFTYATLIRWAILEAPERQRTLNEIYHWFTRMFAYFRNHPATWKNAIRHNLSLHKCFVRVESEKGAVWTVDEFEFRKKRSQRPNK
Put plainly: PD-seq (MBP pull-down with sequencing). The following applies: 20 mM Tris-HCl pH 7.5, 100 mM NaCl, 1.5 mM MgCl2, 0.4 uM protein, 0.1 uM dsDNA library, 30 min, room temperature, amylose pull-down; high values mean tight binding; double strand, one strand shown.
In the case of “GATGATTGTTCTCCCAGCTGATGAATTCGCTCAGTCGAGTAAACAAATTTTCCTAATCTTTCTGTTCAAGCGCCATCTAC”, the binding signal (RPM ratio (pull-down/input)) turned out to be 0.239.

On to “GATGATTGTTCTCCCAGCTGATGAATTCAATGGATCGAGTAAACAAATTTTCCTAATCTTTCTGTTCAAGCGCCATCTAC”, for which the binding signal (RPM ratio (pull-down/input)) turned out to be 0.339.

Consider “GATGATTGTTCTCCCAGCTGATGAATTACGGATCTCGAGTAAACAAATTTTCCTAATCTTTCTGTTCAAGCGCCATCTAC”, for which the binding signal (RPM ratio (pull-down/input)) was 0.4. With “GATGATTGTTCTCCCAGCTGATGAATTTACGAAGTCGAGTAAACAAATTTTCCTAATCTTTCTGTTCAAGCGCCATCTAC”, the binding signal (RPM ratio (pull-down/input)) was found to be 0.237. Turning to “GATGATTGTTCTCCCAGCTGATGAATTCTATAGCTCGAGTAAACAAATTTTCCTAATCTTTCTGTTCAAGCGCCATCTAC”, the binding signal (RPM ratio (pull-down/input)) was found to be 0.43. Take “GATGATTGTTCTCCCAGCTGATGAATTAGAAACTTCGAGTAAACAAATTTTCCTAATCTTTCTGTTCAAGCGCCATCTAC”: the binding signal (RPM ratio (pull-down/input)) turned out to be 0.269. For “GATGATTGTTCTCCCAGCTGATGAATTGGCGCGCTCGAGTAAACAAATTTTCCTAATCTTTCTGTTCAAGCGCCATCTAC”, the binding signal (RPM ratio (pull-down/input)) is 0.572. “GATGATTGTTCTCCCAGCTGATGAATTGGAAGAGTCGAGTAAACAAATTTTCCTAATCTTTCTGTTCAAGCGCCATCTAC”: the binding signal (RPM ratio (pull-down/input)) amounted to 0.198.

For the sequence “GATGATTGTTCTCCCAGCTGATGAATTCTTGAGGTCGAGTAAACAAATTTTCCTAATCTTTCTGTTCAAGCGCCATCTAC”, the binding signal (RPM ratio (pull-down/input)) was found to be 0.202.

In the case of “GATGATTGTTCTCCCAGCTGATGAATTACGGGATTCGAGTAAACAAATTTTCCTAATCTTTCTGTTCAAGCGCCATCTAC”, the binding signal (RPM ratio (pull-down/input)) was 0.408. With “GATGATTGTTCTCCCAGCTGATGAATTCGCATATTCGAGTAAACAAATTTTCCTAATCTTTCTGTTCAAGCGCCATCTAC” the figure was 0.993; with “GATGATTGTTCTCCCAGCTGATGAATTGCGACATTCGAGTAAACAAATTTTCCTAATCTTTCTGTTCAAGCGCCATCTAC”, 2.23. As to “GATGATTGTTCTCCCAGCTGATGAATTGTGGAACTCGAGTAAACAAATTTTCCTAATCTTTCTGTTCAAGCGCCATCTAC”, the binding signal (RPM ratio (pull-down/input)) turned out to be 0.358.

Turning to “GATGATTGTTCTCCCAGCTGATGAATTGCCCAATTCGAGTAAACAAATTTTCCTAATCTTTCTGTTCAAGCGCCATCTAC”, the binding signal (RPM ratio (pull-down/input)) amounted to 0.463.

“GATGATTGTTCTCCCAGCTGATGAATTGGACACCTCGAGTAAACAAATTTTCCTAATCTTTCTGTTCAAGCGCCATCTAC”: the binding signal (RPM ratio (pull-down/input)) is 0.398. As for “GATGATTGTTCTCCCAGCTGATGAATTACTAAGCTCGAGTAAACAAATTTTCCTAATCTTTCTGTTCAAGCGCCATCTAC”, the binding signal (RPM ratio (pull-down/input)) stood at 0.286. Take “GATGATTGTTCTCCCAGCTGATGAATTGACGTGATCGAGTAAACAAATTTTCCTAATCTTTCTGTTCAAGCGCCATCTAC”: the binding signal (RPM ratio (pull-down/input)) is 0.492. With “GATGATTGTTCTCCCAGCTGATGAATTATATCGGTCGAGTAAACAAATTTTCCTAATCTTTCTGTTCAAGCGCCATCTAC” the figure was 0.388; with “GATGATTGTTCTCCCAGCTGATGAATTGAAGGAGTCGAGTAAACAAATTTTCCTAATCTTTCTGTTCAAGCGCCATCTAC”, 0.239. Take “GATGATTGTTCTCCCAGCTGATGAATTTTGGAGTTCGAGTAAACAAATTTTCCTAATCTTTCTGTTCAAGCGCCATCTAC”: the binding signal (RPM ratio (pull-down/input)) amounted to 0.442. In the case of “GATGATTGTTCTCCCAGCTGATGAATTACGCGCCTCGAGTAAACAAATTTTCCTAATCTTTCTGTTCAAGCGCCATCTAC”, the binding signal (RPM ratio (pull-down/input)) turned out to be 1.67. With “GATGATTGTTCTCCCAGCTGATGAATTGCCGTAGTCGAGTAAACAAATTTTCCTAATCTTTCTGTTCAAGCGCCATCTAC” the figure was 0.585; with “GATGATTGTTCTCCCAGCTGATGAATTTTCACAGTCGAGTAAACAAATTTTCCTAATCTTTCTGTTCAAGCGCCATCTAC”, 0.202. With “GATGATTGTTCTCCCAGCTGATGAATTTTCATGGTCGAGTAAACAAATTTTCCTAATCTTTCTGTTCAAGCGCCATCTAC” the figure was 0.294; with “GATGATTGTTCTCCCAGCTGATGAATTCCTCTTATCGAGTAAACAAATTTTCCTAATCTTTCTGTTCAAGCGCCATCTAC”, 0.344. For “GATGATTGTTCTCCCAGCTGATGAATTCCTACTGTCGAGTAAACAAATTTTCCTAATCTTTCTGTTCAAGCGCCATCTAC”, the binding signal (RPM ratio (pull-down/input)) is 0.307. With “GATGATTGTTCTCCCAGCTGATGAATTTGTTATATCGAGTAAACAAATTTTCCTAATCTTTCTGTTCAAGCGCCATCTAC” the figure was 5.26.

“GATGATTGTTCTCCCAGCTGATGAATTACCGAAATCGAGTAAACAAATTTTCCTAATCTTTCTGTTCAAGCGCCATCTAC”: the binding signal (RPM ratio (pull-down/input)) amounted to 0.328.

Turning to “GATGATTGTTCTCCCAGCTGATGAATTACCGAGCTCGAGTAAACAAATTTTCCTAATCTTTCTGTTCAAGCGCCATCTAC”, the binding signal (RPM ratio (pull-down/input)) stood at 0.272. With “GATGATTGTTCTCCCAGCTGATGAATTGTAACGTTCGAGTAAACAAATTTTCCTAATCTTTCTGTTCAAGCGCCATCTAC” the figure was 0.707; with “GATGATTGTTCTCCCAGCTGATGAATTCCCGAAGTCGAGTAAACAAATTTTCCTAATCTTTCTGTTCAAGCGCCATCTAC”, 0.149.
